{
  "source": "the supplement of paper PMC8728848",
  "binders": {"B1": {"name": "Epa1-NP-mutant-Y228W (Candida glabrata), Q6VBJ0 (protein)", "chain": "MILNPALFLNKCVCIYTTLILLLLTNGGYATSSNDISLASKDPTTFPLGCSPDITTPKKGLSMELYSYDFRKKGSYPCWDAAYLDPNYPRTGYKSHRLLAKVDGVTGNINFYYHATKGCTPQLGHLPASYNYPKPLTMTNFTMLLYGYFRPKVTGFHTFTISADDLLFVNFGAGNAFDCCRRDSSADHFGNYQAYAIWGSKTAKDELTVHLDAGVYYPIRLFYNNREWDGALSFTFKTESNENTVSDFSEYFFSLDDTEEGCPGLISYDSSCASVKTSKIIGIDYHTETPNENLVPITKTIYHLGIPCTGTTTTPLCGSGFYDPLANKCVTINTSSTSSVTKTTSHTTSKEVSFHSSISSQKTLIPKSIPSPYGPIKSQSIPTEMETSSEISSSEYAFSDVISTPSHSPYTKKHSSLNSSSYTSTVIHSLTSYSISQGIFSTSLSEQNITSKSSTDKFSTATSMSNNITQSSIIISQFSTNNENYTTTSMHTSSDKISTETLNNSISTTTSILFSNSSTILKNNTTIISSDKDTHYHPVNPTIVCSTNKTEIICASITQPSISNSNNHWSSSVLKFNSTTVRSTLPSSAGSNETSINVPFSSSTESNTSTSSTSTSNSKMVRSTLPSSAGSNETSISVPFSSSTESNTSTSSTSTSNSKMVRSTLPSSAGSNETSINVPFSSSTESNTSTSSTSTSNSKTVRSTPFSSAGIIMTSLSQRNNKSASSYASSNSKCYNTADSCRKVHSTPSYLLTSSYTSEGVDYDCSLVSTKLKINDTNCVNNKHTTKSCLKTSVTTTIPTLEIKTARKSSSNTIGLHSYPTSSPNKSISSAPIIGYISSFKTIKTASPSYQTSDLTTITTITSLNNPGSTAVENTHESNDKSRKTSSNDISSKHSVIKETKDAVESSNKSHQTNTLKCSSIIIASSSHNSYESLGGTTLTLTLSKVYSPQNNDTLPFLEISEVNPSRTVLPESSKMMQYLTSTEERNKTARNTIATNIVSISTFHFEGEGNAIRMGYTQLLLMLIGIIVMNIGT"}},
  "experiment_in_all_cases": "glycan array binding signal (z-score within array); higher = stronger binding",
  "details_in_all_cases": "glycan notation: IUPAC condensed, linker removed; mutation: Y228W",
  "key": {"[1]": {"molecular_target": "Gal(b1-3)GlcNAc(b1-2)Man(a1-3)[Gal(b1-3)GlcNAc(b1-2)Man(a1-6)]Man(b1-4)GlcNAc(b1-4)GlcNAc", "procedure,_shortened": "(§1)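 The binding signal is a Z-score computed within each array and averaged over linkers. Arrays of the same protein sequence at different concentrations or buffers were also averaged together. Data originate from 3228 arrays in the Consortium for Functional Glycomics database, kept only where the protein sequence was available.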"}, "[2]": {"molecular_target": "Gal(b1-3)GlcNAc(b1-2)Man(a1-3)[Gal(b1-3)GlcNAc(b1-2)Man(a1-6)]Man(b1-4)GlcNAc(b1-4)[Fuc(a1-6)]GlcNAc", "procedure,_shortened": "as §1"}, "[3]": {"molecular_target": "Gal(b1-3)GlcNAc(b1-2)Man(a1-3)[GlcNAc(b1-4)][Gal(b1-3)GlcNAc(b1-2)Man(a1-6)]Man(b1-4)GlcNAc(b1-4)GlcNAc", "procedure,_shortened": "as §1"}, "[4]": {"molecular_target": "Gal(b1-3)GlcNAc(b1-2)[Gal(b1-3)GlcNAc(b1-6)]Man(a1-6)[Gal(b1-3)GlcNAc(b1-2)Man(a1-3)]Man(b1-4)GlcNAc(b1-4)GlcNAc", "procedure,_shortened": "as §1"}, "[5]": {"molecular_target": "Gal(b1-3)GlcNAc(b1-3)Gal(b1-3)GlcNAc", "procedure,_shortened": "as §1"}, "[6]": {"molecular_target": "Gal(b1-3)GlcNAc(b1-3)Gal(b1-4)Glc", "procedure,_shortened": "as §1"}, "[7]": {"molecular_target": "Gal(b1-3)GlcNAc(b1-3)Gal(b1-4)GlcNAc", "procedure,_shortened": "as §1"}, "[8]": {"molecular_target": "Gal(b1-3)GlcNAc(b1-3)Gal(b1-4)GlcNAc(b1-2)Man(a1-3)[Gal(b1-3)GlcNAc(b1-3)Gal(b1-4)GlcNAc(b1-2)Man(a1-6)]Man(b1-4)GlcNAc(b1-4)GlcNAc", "procedure,_shortened": "as §1"}, "[9]": {"molecular_target": "Gal(b1-3)GlcNAc(b1-3)Gal(b1-4)GlcNAc(b1-2)[Gal(b1-3)GlcNAc(b1-3)Gal(b1-4)GlcNAc(b1-6)]Man(a1-6)[Gal(b1-3)GlcNAc(b1-3)Gal(b1-4)GlcNAc(b1-2)Man(a1-3)]Man(b1-4)GlcNAc(b1-4)[Fuc(a1-6)]GlcNAc", "procedure,_shortened": "as §1"}, "[10]": {"molecular_target": "Gal(b1-3)GlcNAc(b1-3)Gal(b1-4)GlcNAc(b1-3)Gal(b1-4)GlcNAc(b1-2)[Gal(b1-3)GlcNAc(b1-3)Gal(b1-4)GlcNAc(b1-3)Gal(b1-4)GlcNAc(b1-6)]Man(a1-6)[Gal(b1-3)GlcNAc(b1-3)Gal(b1-4)GlcNAc(b1-3)Gal(b1-4)GlcNAc(b1-2)Man(a1-3)]Man(b1-4)GlcNAc(b1-4)[Fuc(a1-6)]GlcNAc", "procedure,_shortened": "as §1"}, "[11]": {"molecular_target": "Gal(b1-3)GlcNAc(b1-3)Gal(b1-4)GlcNAc(b1-6)[Gal(b1-3)GlcNAc(b1-3)]Gal(b1-4)Glc", "procedure,_shortened": "as §1"}, "[12]": {"molecular_target": "Gal(b1-3)GlcNAc(b1-3)Gal(b1-4)[Fuc(a1-3)]GlcNAc", "procedure,_shortened": "as §1"}, "[13]": {"molecular_target": "Gal(b1-3)GlcNAc(b1-3)Gal(b1-4)[Fuc(a1-3)]GlcNAc(b1-6)[Gal(b1-3)GlcNAc(b1-3)]Gal(b1-4)Glc", "procedure,_shortened": "as §1"}, "[14]": {"molecular_target": "Gal(b1-3)GlcNAc(b1-3)GalNAc", "procedure,_shortened": "as §1"}, "[15]": {"molecular_target": "Gal(b1-3)GlcNAc(b1-6)Gal(b1-4)GlcNAc", "procedure,_shortened": "as §1"}, "[16]": {"molecular_target": "Gal(b1-3)GlcNAc(b1-6)GalNAc", "procedure,_shortened": "as §1"}, "[17]": {"molecular_target": "Gal(b1-3)GlcNAc(b1-6)[Gal(b1-3)]GalNAc", "procedure,_shortened": "as §1"}, "Gal(b1-3)GlcNAc6S": {"molecular_target": "Gal(b1-3)GlcNAc6S", "procedure,_shortened": "as §1"}, "[18]": {"molecular_target": "Gal(b1-3)[Fuc(a1-4)]GlcNAc", "procedure,_shortened": "as §1"}, "[19]": {"molecular_target": "Gal(b1-3)[Fuc(a1-4)]GlcNAc(b1-2)Man", "procedure,_shortened": "as §1"}, "[20]": {"molecular_target": "Gal(b1-3)[Fuc(a1-4)]GlcNAc(b1-2)Man(a1-3)[Gal(b1-3)[Fuc(a1-4)]GlcNAc(b1-2)Man(a1-6)]Man(b1-4)GlcNAc(b1-4)[Fuc(a1-6)]GlcNAc", "procedure,_shortened": "as §1"}, "[21]": {"molecular_target": "Gal(b1-3)[Fuc(a1-4)]GlcNAc(b1-3)Gal(b1-3)[Fuc(a1-4)]GlcNAc", "procedure,_shortened": "as §1"}, "[22]": {"molecular_target": "Gal(b1-3)[Fuc(a1-4)]GlcNAc(b1-3)Gal(b1-4)[Fuc(a1-3)]GlcNAc", "procedure,_shortened": "as §1"}, "[23]": {"molecular_target": "Gal(b1-3)[Fuc(a1-4)]GlcNAc(b1-6)GalNAc", "procedure,_shortened": "as §1"}, "[24]": {"molecular_target": "Gal(b1-3)[GlcNAc(b1-6)]GalNAc", "procedure,_shortened": "as §1"}, "[25]": {"molecular_target": "Gal(b1-3)[Neu5Ac(a2-6)]GalNAc", "procedure,_shortened": "as §1"}, "[26]": {"molecular_target": "Gal(b1-3)[Neu5Ac(a2-6)]GlcNAc(b1-4)Gal(b1-4)Glc", "procedure,_shortened": "as §1"}, "[27]": {"molecular_target": "Gal(b1-3)[Neu5Ac(b2-6)]GalNAc", "procedure,_shortened": "as §1"}, "Gal(b1-4)Gal": {"molecular_target": "Gal(b1-4)Gal", "procedure,_shortened": "as §1"}, "[28]": {"molecular_target": "Gal(b1-4)GalNAc(a1-3)[Fuc(a1-2)]Gal(b1-4)GlcNAc", "procedure,_shortened": "as §1"}},
  "note": "This is one part of the list.",
  "data": [
    {"binder": "B1", "values": [
      {"measurement": "glycan array binding signal (z-score)", "setting": "[1]", "value": -0.191},
      {"measurement": "glycan array binding signal (z-score)", "setting": "[2]", "value": 0.073},
      {"measurement": "glycan array binding signal (z-score)", "setting": "[3]", "value": -0.255},
      {"measurement": "glycan array binding signal (z-score)", "setting": "[4]", "value": 0.125},
      {"measurement": "glycan array binding signal (z-score)", "setting": "[5]", "value": -0.251},
      {"measurement": "glycan array binding signal (z-score)", "setting": "[6]", "value": -0.144},
      {"measurement": "glycan array binding signal (z-score)", "setting": "[7]", "value": -0.333},
      {"measurement": "glycan array binding signal (z-score)", "setting": "[8]", "value": -0.274},
      {"measurement": "glycan array binding signal (z-score)", "setting": "[9]", "value": 0.351},
      {"measurement": "glycan array binding signal (z-score)", "setting": "[10]", "value": 0.333},
      {"measurement": "glycan array binding signal (z-score)", "setting": "[11]", "value": 0.168},
      {"measurement": "glycan array binding signal (z-score)", "setting": "[12]", "value": -0.147},
      {"measurement": "glycan array binding signal (z-score)", "setting": "[13]", "value": -0.494},
      {"measurement": "glycan array binding signal (z-score)", "setting": "[14]", "value": -0.127},
      {"measurement": "glycan array binding signal (z-score)", "setting": "[15]", "value": 0.294},
      {"measurement": "glycan array binding signal (z-score)", "setting": "[16]", "value": -0.205},
      {"measurement": "glycan array binding signal (z-score)", "setting": "[17]", "value": 0.311},
      {"measurement": "glycan array binding signal (z-score)", "setting": "Gal(b1-3)GlcNAc6S", "value": 0.221},
      {"measurement": "glycan array binding signal (z-score)", "setting": "[18]", "value": -0.287},
      {"measurement": "glycan array binding signal (z-score)", "setting": "[19]", "value": 0.162},
      {"measurement": "glycan array binding signal (z-score)", "setting": "[20]", "value": 0.37},
      {"measurement": "glycan array binding signal (z-score)", "setting": "[21]", "value": -0.413},
      {"measurement": "glycan array binding signal (z-score)", "setting": "[22]", "value": -0.061},
      {"measurement": "glycan array binding signal (z-score)", "setting": "[23]", "value": 0.075},
      {"measurement": "glycan array binding signal (z-score)", "setting": "[24]", "value": 0.692},
      {"measurement": "glycan array binding signal (z-score)", "setting": "[25]", "value": 0.486},
      {"measurement": "glycan array binding signal (z-score)", "setting": "[26]", "value": -0.504},
      {"measurement": "glycan array binding signal (z-score)", "setting": "[27]", "value": -0.277},
      {"measurement": "glycan array binding signal (z-score)", "setting": "Gal(b1-4)Gal", "value": -0.091},
      {"measurement": "glycan array binding signal (z-score)", "setting": "[28]", "value": -0.291}
    ]}
  ]
}
